The values that follow come from PubChem BioAssay AID1346428 (National Center for Advancing Translational Sciences (NCATS), 2018).

The structures appear in SMILES notation. The campaign covered roughly 48,000 compounds. About 1,200 (2.5%) were called active. Inconclusive results (about 2%) are left out.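 How the source made its calls: active means activation of at least 60% and not above a set upper limit (about 1 call in 100 departs from these limits); inconclusive means activation of 40% to 60%, or above that upper limit; inactive means activation under 40%.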 The list shows a part of the results.

Chain of UniProt O75388 (O75388 whole entry, looked up, the tested form may be a part): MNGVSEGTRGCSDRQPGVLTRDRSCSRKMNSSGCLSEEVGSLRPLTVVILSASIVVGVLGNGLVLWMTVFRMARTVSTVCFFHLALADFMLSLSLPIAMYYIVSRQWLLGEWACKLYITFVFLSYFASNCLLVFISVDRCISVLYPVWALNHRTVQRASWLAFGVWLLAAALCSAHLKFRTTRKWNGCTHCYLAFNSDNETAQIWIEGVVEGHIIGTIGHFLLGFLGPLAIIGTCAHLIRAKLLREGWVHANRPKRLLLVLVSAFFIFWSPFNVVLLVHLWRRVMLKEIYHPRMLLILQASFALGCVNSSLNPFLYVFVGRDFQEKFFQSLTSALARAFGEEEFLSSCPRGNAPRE

The target of this assay is Probable G-protein coupled receptor 32 (Homo sapiens) (UniProt O75388). In words: qHTS for Agonists of Human Resolvin D1 Receptor DRV1. Further: 0% is about no effect. The conditions noted are these: CHO-K1 GPR32 beta-arrestin PathHunter luminescence, 90 min; at 76.9 µM; hits give high values; zero percent set by DMSO-only wells. The method in brief:
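Agonism was scored by beta-Gal fragment complementation (chemiluminescent read, 1 h detection at ambient temperature) reporting beta-arrestin binding to GPR32 in engineered CHO-K1 cells. Compound treatment lasted 90 min at 37 C, normalized to a DMSO basal control.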
For orientation: Quantitative high-throughput screening tests each substance at several concentrations.
Regarding `COc1ccc(OC)c(-c2nc(Nc3ccccc3C)sc2CC(=O)O)c1`, the activation was inactive: -34%.
As to `CCOC(=O)c1ccccc1NC(=O)CSc1ccc(-c2sc(-c3ccccc3)nc2C)nn1`, the activation is inactive: -11%.
`COc1cccc(C(=O)Nc2ccccc2C(=O)OCc2cc(=O)n3nc(C)sc3n2)c1`: the activation is inactive: -7.69%.
Turning to `CC(C)c1ccc(NC(=O)C2CCCN(S(=O)(=O)c3ccc(Br)s3)C2)cc1` (centres undefined), the activation was inactive: -5.94%.
Under `CC(C)CCNC(=O)CN1C(=O)COc2ccc(S(=O)(=O)N3CCOCC3)cc21` stands inactive: -3.67%; under `COc1ccc(NC(=O)C(=O)NCCc2ccccc2)cc1OC`, inactive: 5.01%; under `COc1ccc(-n2cc(-c3ccccc3)c3c(SC(C)C(C)=O)ncnc32)cc1` (centres undefined), active: 99.3%.
Under `CCOC(=O)c1cccc(NC(=O)c2cc3c(Cl)nc4ccc(C)cc4c3s2)c1` stands inactive: -6.39%; under `COc1cc(OC)c(OC)cc1CN1CCc2nc(N3CCN(c4ncccn4)CC3)ncc2C1`, inactive: 22.9%; under `Fc1ccc(-c2cc(-c3nc(-c4cccc(Cl)c4)no3)[nH]n2)cc1`, inactive: -0.463%.
The figure for `CCc1ccc(CNC(=O)c2ccc3c(c2)nc2n3CCOC2)cc1` is inactive: -5.91%.
Turning to `CC1CCC(NC(=O)c2ccc3c(c2)N(Cc2cccc(F)c2)C(=O)c2ccccc2S3)CC1` (centres undefined), the activation was inactive: -6.38%.
Under `Cc1ccc(C)c(NC(=O)C(C)n2c(=O)cc(C(F)(F)F)c3c(C)nn(C)c32)c1` (centres undefined) stands inactive: 2.28%; under `CCc1nnc(SCc2ccc(F)cc2Cl)c2cc3sccc3n12`, inactive: -15.5%; under `CCN1CCN(C(=O)c2ccc3c(c2)N(Cc2cccc(Cl)c2)C(=O)c2ccccc2S3(=O)=O)CC1`, inactive: -17.4%.
The figure for `COc1ccc(-c2noc(C3CC(=O)N(c4ccc(C)c(F)c4)C3)n2)c(OC)c1` (centres undefined) is inactive: 29.5%; for `COc1ccccc1CNC(=O)CSc1ncc2c(n1)-c1ccccc1N(Cc1ccc(C)cc1)S2(=O)=O` it is inactive: -0.614%.
Under `COc1ccc(OC)c(NC(=O)C2CCN(S(=O)(=O)c3ccc(C)cc3)CC2)c1` stands inactive: -6.26%; under `CCOC(=O)c1c(NC(=O)CSc2cn(CCNC(=O)c3ccc(OCC)cc3)c3ccccc23)sc2c1CCCC2`, inactive: -24.6%; under `Cc1cccc(CC(=O)NC2CC(=O)N(c3cccc(F)c3)C2)c1` (centres undefined), inactive: -3.88%.
Regarding `COc1cccc(N2C(=O)C(CC(=O)Nc3cccc(F)c3)N(C(C)C)C2=O)c1` (centres undefined), the activation is inactive: -16.9%.
The figure for `Cc1cc(N2CCCCC2)nc2ccc(NC(=O)c3ccc(F)cc3)cc12` is active: 105%; for `O=C(COc1ccccc1)Nc1ccc(OCc2cc(=O)n3ccsc3n2)cc1` it is inactive: 1.91%; for `COc1ccc(OC)c(C2CC(=O)N(c3cccc(C)c3)C3=C2C(=O)OC3)c1` (centres undefined) it is inactive: -8.98%.
Under `CCOc1ccc(C(=O)Nc2ccc(S(=O)(=O)N(Cc3ccccc3)c3ccccc3)cc2)cc1` stands inactive: -3.92%.
Under `COCCNC(=O)CSc1nc(-c2ccc(F)cc2)[nH]c1-c1ccc(Cl)cc1` stands inactive: -22.2%; under `CC(CNC(=O)Cn1ncc2c3ccccc3n(Cc3cccc(Cl)c3)c2c1=O)c1ccccc1` (centres undefined), inactive: -12.3%.
As for `CN(C(=O)CSc1nc2ncccc2o1)c1ccc(F)cc1`, the activation is inactive: 2.47%.
The figure for `Cc1cc(F)ccc1Nc1nc2ccccc2n2nnnc12` is inactive: -21.4%.
As to `COc1ccccc1N1CCN(S(=O)(=O)c2ccc(-c3cc(C(F)(F)F)on3)s2)CC1`, the activation was inactive: -5.84%.
Under `CC(C)CCNC(=O)C(=O)Nc1c2c(nn1-c1ccccc1)CS(=O)(=O)C2` stands inactive: -16.4%; under `O=C(CSc1nc2cc3ccccc3cc2[nH]1)Nc1cccc(C(F)(F)F)c1`, active: 93.9%; under `COc1cccc(CNc2ncnc3onc(-c4ccc(F)cc4)c23)c1`, inactive: 14.3%.
The figure for `COCc1cc(C)nc2sc3c(c12)NC(c1ccc(NC(C)=O)cc1)N(c1ccc(C)cc1)C3=O` (centres undefined) is inactive: -14.8%; for `CCOC(=O)c1cc(OC(=O)c2cccc(C)c2)n(-c2ccccc2)n1` it is inactive: 28.3%; for `CCN(c1ccccc1)c1nnc(NC(=O)Nc2cccc(C(F)(F)F)c2)s1` it is inactive: 5.43%.
The figure for `O=c1c2ccccc2n(Cc2cccc(Cl)c2)c(=O)n1CCc1ccccc1` is inactive: -5.38%; for `COc1ccc(-c2cc(C(C)=O)c(C)n2CCC(=O)Nc2cc(C)ccc2OC)cc1` it is inactive: -22.3%; for `Cc1ccc(C)c(N2CCN(c3ncnc4onc(C)c34)CC2)c1` it is inactive: -2.02%.
`COCc1cc(C)nc2sc3c(=O)n(-c4cc(C)ccc4C)nnc3c12`: the activation was inactive: -10.7%.
Under `CCOC(=O)c1ccccc1NC(=O)N1CCN2CCCCC2C1` (centres undefined) stands inactive: -10.4%; under `O=C1c2ccccc2C(=O)c2c1ccc(O)c2O`, inactive: -81.3%; under `COc1cccc2cc(-c3nc4sc(C(=O)Nc5ccc(F)cc5F)c(C)c4c(=O)[nH]3)c(=O)oc12`, inactive: -5.8%.
Under `COc1ccccc1CCNC(=O)Cc1c(C)c2ccc(O)cc2oc1=O` stands inactive: 16.7%.
The figure for `CC(=O)Nc1nonc1-c1nnc(SCC(=O)Nc2cc(C)ccc2C)n1-c1ccccc1` is inactive: -15.1%.
With `O=C1CC(c2nnc(Cc3c(F)cccc3Cl)o2)CN1c1ccccc1` (centres undefined), the activation was inactive: -7.15%.
Under `Cc1ccc(Nc2c(-c3ccc(N4CCOCC4)cc3)nc3cccc(C)n23)cc1` stands inactive: -6.06%; under `CCOC(=O)C(O)c1ccccc1` (centres undefined), inactive: 7.38%; under `Cc1cccc(CN2C(=O)c3ccccc3S(=O)(=O)c3ccc(C(=O)N(C)Cc4ccccc4)cc32)c1`, inactive: -7.17%.
The figure for `COc1cccc(NC(=O)CCc2nnc3n(Cc4ccccc4Cl)c(=O)c4ccccc4n23)c1` is inactive: -7.7%; for `Cc1ccc(NC(=O)c2c(C)nc3sc(C(=O)Nc4ccc(F)cc4)c(N)c3c2-c2ccc(Cl)cc2)c(C)c1` it is inactive: -3.86%.
The figure for `CCOc1ccccc1C(=O)Nc1ccc(-n2nncc2-c2ccccc2)cc1` is inactive: -13%; for `CCOC(=O)c1ccc(NC(=O)c2sc3ccccc3c2Cl)cc1` it is inactive: -22.9%.
`COc1ccccc1C(=O)Nc1nnc(S(=O)(=O)N2CCN(c3ccc(F)cc3)CC2)s1`: the activation is inactive: 2.73%.
